# Results published in the supplement of paper PMC12217912.
# The other results are listed elsewhere or left out. Sequences were assembled here from the parent chain. Inactive controls read about 0.05.
# B1: TEV protease; numbered along this chain (parent)
# chain: MGESLFKGPRDYNPISSSICHLTNESDGHTTSLYGIGFGPFIITNKHLFRRNNGTLVVQSLHGVFKVKDTTTLQQHLVDGRDMIIIRMPKDFPPFPQKLKFREPQREERICLVTTNFQTKSMSSMVSDTSCTFPSGDGIFWKHWIQTKDGQCGSPLVSTRDGFIVGIHSASNFTNTNNYFTSVPKNFMELLTNQEAQQWVSGWRLNADSVLWGGHKVFMVKPEEPFQPVKEATQL
# Variants of: B1
# Assay: raw area under fraction-flipped curve 0-4 h after induction (AUC4h, not background-subtracted), DNA-recorder readout of cleavage of the substrate (dimensionless); higher = more cleavage of the substrate by the protease variant
# Conditions: temperature: 34 °C; time window: 0-4 h after rhamnose induction
# 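Note: Bxb1 expression induced with 0.2% (w/v) L-rhamnose at OD600 near 0.5, cultures sampled hourly, flipped fraction per protease–substrate barcode pair counted by paired-end Illumina sequencing.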
variant,measurement,value
F180P,area with substrate ENCYFQS,0.0532
same,area with substrate ENDYFQS,0.0407
same,area with substrate ENGYFQS,0.0688
same,area with substrate ENHYFQS,0.0548
same,area with substrate ENMYFQS,0.0468
same,area with substrate ENNYFQS,0.0334
same,area with substrate ENQYFQS,0.051
same,area with substrate ENRYFQS,0.063
same,area with substrate ENSYFQS,0.0506
same,area with substrate ENVYFQS,0.0759
same,area with substrate ENWYFQS,0.0486
A196M,area with substrate ENCYFQS,0.0772
same,area with substrate ENDYFQS,0.0529
same,area with substrate ENEYFQS,0.0651
same,area with substrate ENFYFQS,0.0281
same,area with substrate ENGYFQS,0.065
same,area with substrate ENHYFQS,0.0548
same,area with substrate ENMYFQS,0.0707
same,area with substrate ENNYFQS,0.0641
same,area with substrate ENPYFQS,0.05
same,area with substrate ENQYFQS,0.0547
same,area with substrate ENRYFQS,0.0586
same,area with substrate ENVYFQS,0.0869
same,area with substrate ENWYFQS,0.0693
S201L,area with substrate ENCYFQS,0.0715
same,area with substrate ENDYFQS,0.069
same,area with substrate ENEYFQS,0.0626
same,area with substrate ENHYFQS,0.0652
same,area with substrate ENIYFQS,0.0789
same,area with substrate ENQYFQS,0.0893
same,area with substrate ENRYFQS,0.0585
same,area with substrate ENSYFQS,0.0588
same,area with substrate ENTYFQS,0.0574
same,area with substrate ENVYFQS,0.0809
same,area with substrate ENWYFQS,0.0703
G202L,area with substrate ENCYFQS,0.0647
same,area with substrate ENDYFQS,0.0584
same,area with substrate ENEYFQS,0.0442
same,area with substrate ENHYFQS,0.0553
same,area with substrate ENIYFQS,0.0579
same,area with substrate ENRYFQS,0.0692
same,area with substrate ENSYFQS,0.0677
same,area with substrate ENTYFQS,0.0821
same,area with substrate ENVYFQS,0.0645
same,area with substrate ENYYFQS,0.0683
K221D,area with substrate ENCYFQS,0.0668
same,area with substrate ENDYFQS,0.0595
same,area with substrate ENEYFQS,0.0685
same,area with substrate ENFYFQS,0.0601
same,area with substrate ENGYFQS,0.0573
same,area with substrate ENIYFQS,0.0777
same,area with substrate ENNYFQS,0.0529
same,area with substrate ENPYFQS,0.0053
same,area with substrate ENQYFQS,0.0584
same,area with substrate ENRYFQS,0.0656
same,area with substrate ENSYFQS,0.064
same,area with substrate ENTYFQS,0.0567
same,area with substrate ENVYFQS,0.0566
same,area with substrate ENWYFQS,0.0501
same,area with substrate ENYYFQS,0.0524
Q227T,area with substrate ENCYFQS,0.0539
same,area with substrate ENDYFQS,0.0508
same,area with substrate ENEYFQS,0.0653
same,area with substrate ENIYFQS,0.121
same,area with substrate ENKYFQS,0.0672
same,area with substrate ENPYFQS,0.0613
same,area with substrate ENRYFQS,0.0629
Q234H,area with substrate ENCYFQS,0.0979
same,area with substrate ENDYFQS,0.11
same,area with substrate ENEYFQS,0.0533
same,area with substrate ENHYFQS,0.0556
same,area with substrate ENIYFQS,0.103
same,area with substrate ENKYFQS,0.0716
same,area with substrate ENMYFQS,0.0519
same,area with substrate ENRYFQS,0.053
same,area with substrate ENSYFQS,0.0603
K7Q,area with substrate ENDYFQS,0.073
same,area with substrate ENEYFQS,0.0551
same,area with substrate ENFYFQS,0.0667
same,area with substrate ENHYFQS,0.063
same,area with substrate ENIYFQS,0.0985
same,area with substrate ENNYFQS,0.0735
same,area with substrate ENPYFQS,0.0553
same,area with substrate ENQYFQS,0.0478
same,area with substrate ENRYFQS,0.0657
same,area with substrate ENSYFQS,0.0566
same,area with substrate ENVYFQS,0.0836
P9V,area with substrate ENDYFQS,0.0541
same,area with substrate ENFYFQS,0.0536
same,area with substrate ENHYFQS,0.0603
same,area with substrate ENIYFQS,0.0781
same,area with substrate ENMYFQS,0.0793
same,area with substrate ENNYFQS,0.0578
same,area with substrate ENQYFQS,0.0596
same,area with substrate ENRYFQS,0.0591
same,area with substrate ENSYFQS,0.0597
same,area with substrate ENVYFQS,0.0618
same,area with substrate ENWYFQS,0.0517
S26G,area with substrate ENDYFQS,0.0578
same,area with substrate ENEYFQS,0.0625
same,area with substrate ENFYFQS,0.0619
same,area with substrate ENHYFQS,0.0564
same,area with substrate ENQYFQS,0.0488
same,area with substrate ENSYFQS,0.0534
same,area with substrate ENVYFQS,0.0717
same,area with substrate ENWYFQS,0.0415
same,area with substrate ENYYFQS,0.0818
Y34Q,area with substrate ENDYFQS,0.057
same,area with substrate ENGYFQS,0.0608
same,area with substrate ENIYFQS,0.0779
same,area with substrate ENNYFQS,0.0511
same,area with substrate ENQYFQS,0.0549
same,area with substrate ENWYFQS,0.0527
T44Y,area with substrate ENDYFQS,0.0481
same,area with substrate ENEYFQS,0.0482
same,area with substrate ENFYFQS,0.0487
same,area with substrate ENIYFQS,0.0484
same,area with substrate ENMYFQS,0.0444
same,area with substrate ENNYFQS,0.0505
same,area with substrate ENRYFQS,0.0476
same,area with substrate ENSYFQS,0.0447
same,area with substrate ENTYFQS,0.04
same,area with substrate ENVYFQS,0.0391
same,area with substrate ENYYFQS,0.0636
T55Y,area with substrate ENDYFQS,0.064
same,area with substrate ENEYFQS,0.0652
same,area with substrate ENFYFQS,0.061
same,area with substrate ENGYFQS,0.0615
same,area with substrate ENHYFQS,0.07
same,area with substrate ENIYFQS,0.101
same,area with substrate ENPYFQS,0.0511
same,area with substrate ENSYFQS,0.0594
same,area with substrate ENTYFQS,0.0574
same,area with substrate ENVYFQS,0.071
same,area with substrate ENYYFQS,0.0417
S60E,area with substrate ENDYFQS,0.0499
same,area with substrate ENEYFQS,0.0388
same,area with substrate ENFYFQS,0.0486
same,area with substrate ENGYFQS,0.0536
same,area with substrate ENHYFQS,0.054
same,area with substrate ENIYFQS,0.0507
same,area with substrate ENKYFQS,0.0497
same,area with substrate ENQYFQS,0.0515
same,area with substrate ENSYFQS,0.0455
same,area with substrate ENTYFQS,0.0581
same,area with substrate ENVYFQS,0.0507
same,area with substrate ENWYFQS,0.0239
H76Q,area with substrate ENDYFQS,0.0508
same,area with substrate ENEYFQS,0.0586
same,area with substrate ENFYFQS,0.053
same,area with substrate ENGYFQS,0.0689
same,area with substrate ENIYFQS,0.087
same,area with substrate ENKYFQS,0.0593
same,area with substrate ENNYFQS,0.0698
same,area with substrate ENQYFQS,0.0683
same,area with substrate ENTYFQS,0.0708
same,area with substrate ENVYFQS,0.079
G80R,area with substrate ENDYFQS,0.0749
same,area with substrate ENEYFQS,0.0726
same,area with substrate ENHYFQS,0.0499
same,area with substrate ENIYFQS,0.0634
same,area with substrate ENMYFQS,0.0688
same,area with substrate ENNYFQS,0.0563
same,area with substrate ENSYFQS,0.0642
same,area with substrate ENWYFQS,0.0473
